According to PubChem BioAssay AID1508624 (National Center for Advancing Translational Sciences (NCATS), 2021):
About 120 (0.25%) of roughly 48,000 compounds were called active. Inconclusive results (about 4%) are left out. Calls come from the whole dose curve; as a rule, active = well fitted activation curve with a large enough effect; inconclusive = small, poorly fitted or top-dose-only effect, or another doubt; inactive = no such curve, though single readings can be large or run the other way. Some of the results follow.

Test: Primary qHTS for Identification of Small Molecule Activators of Huntingtin-Antisense Promoter Activity; note: nearly all actives have a fitted effect of over 55% in size
Conditions: HEK293 HTT-AS promoter firefly luciferase reporter, 24 h; series mostly up to 57.5 µM; activity change, positive = activation: at the top concentration
Summary of the method: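 HEK293 Fluc reporter, 2,500 cells/well, 24 h pre-culture; cpds up to 57.5 uM final, 24 h 37 degrees C; Dual-Glo, 10 min RT; normalized vehicle = 0%, zero RLU = -100%.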

Activity change, positive = activation, inactive:
Cc1ccc(-n2ncc(C(=O)NCCN3CCC(Cc4ccccc4)CC3)c2C2CCN(C(=O)OC(C)(C)C)CC2)cc1 -55.8%, O=C(NCC(c1cccnc1)N1CCc2ccccc21)c1ccc(Cl)cc1 (configuration not stated) -42.9%, CC(C)CCNC(=O)c1ccc2nc(Cc3ccccc3)oc2c1 2.3%, Cc1cc(NS(=O)(=O)c2ccc(NC(=O)COc3cc(C)c(Br)cc3C(C)C)cc2)no1 -25.1%, CCOc1ccc(N(CC)C(=O)Cn2cnc3sc(C)c(S(=O)(=O)N4CCN(c5ncccn5)CC4)c3c2=O)cc1 -8.86%, COc1ccc(-c2cc(C(F)(F)F)nc(SCC(=O)NC(C)c3ccccc3)n2)cc1 (configuration not stated) -17%, O=C(Cn1ncc2c3ccccc3n(Cc3ccccc3)c2c1=O)NCc1ccccn1 -10.5%, COc1ccc(Nc2ncc3c(n2)CCN(Cc2sccc2C)C3)c(OC)c1 -7.8%, COc1ccc2c(CNCCc3ccco3)c(C(=O)O)n(Cc3ccc(C)cc3)c2c1 -23.3%, COc1ccc(C(CNC(=O)c2oc3cc(Br)ccc3c2C)N2CCCCC2)cc1 (configuration not stated) 13.5%, O=[N+]([O-])c1ccc(S(=O)(=O)N2CCn3cccc3C2c2ccc(Br)cc2)cc1 (configuration not stated) -24.3%, Cc1ccc(-n2nc(C(=O)N(C)c3ccc(C)c(C)c3)c3c4ccccc4n(C)c3c2=O)cc1 -7.72%, Cc1ccc(S(=O)(=O)N(CC(=O)Nc2cccnc2)c2cc(Cl)ccc2C)cc1 -51%, CCOC(=O)CN1C(=O)N(c2ccc(C)c(C)c2)S(=O)(=O)c2ccccc21 -30.3%, Cc1ccc(CN2CCC(CNC(=O)c3cnn(-c4ccc(C)cc4)c3C3CCN(C(=O)OC(C)(C)C)CC3)CC2)cc1 -94.2%, Cc1cc(=O)n(CC(=O)Nc2ccc(Cl)c(Cl)c2)c(-n2nc(C)cc2C)n1 -47.5%, COc1ccc(NC(=O)CC2C(=O)N(c3ccccc3)C(=O)N2CCc2sccc2C)cc1 (configuration not stated) 15.7%, Cc1cccc(NC(=O)CCCn2nc(C)c3c(C)n(-c4ccccc4)nc3c2=O)c1C 0.678%, CCOc1ccc(CNC(=O)C2CCCN(c3nn4cc(-c5ccc(OC)cc5)nc4s3)C2)cc1 (configuration not stated) 1.82%, CCOC(=O)C1CCN(C(=O)c2cnn(-c3ccc(F)cc3)c2-n2cccc2)CC1 -32%, CCOC(=O)c1[nH]c2c(c1Cc1ccccc1)C(=O)CC(c1ccc(C(C)(C)C)cc1)C2 (configuration not stated) -31.5%, CCc1ccc(NC(=O)CSc2nnc(CC)c(CC)n2)cc1 -11.8%, CCN(CC)S(=O)(=O)c1cc(-c2ccc(=O)n(C(C)C(=O)Nc3cccc(C#N)c3)n2)ccc1C (configuration not stated) -32.6%, Cc1ccc(Cn2c(CN3CCC(C(=O)O)CC3)cc3ccccc32)cc1 -3.4%, COc1ccc(C(=O)Nc2nc3c(s2)Cc2c(Br)ccc(OC)c2-3)cc1OC -2.79%, Cc1cc(C)cc(N(CC(=O)Nc2c(C)cc(C)cc2C)S(=O)(=O)c2c(C)nn(C)c2C)c1 -21.7%, CCN(CC)CCCNC(=O)c1sc2nc3n(c(=O)c2c1C)CCCCC3 -3.64%, COc1ccc(-c2noc(CSc3nnc(Cc4ccccc4)n3-c3ccc(F)cc3)n2)cc1 -34.7%, CN(CC(=O)Nc1ccc(F)cc1F)S(=O)(=O)c1cccc2nsnc12 11.9%, COc1ccc(CNC(=O)CCCn2ccc3cc(S(=O)(=O)N4CCCC4)ccc32)cc1 -15.9%, CCOc1cc(-c2nnc(SCC(=O)NC3CCCCC3)nc2-c2ccc(OC)c(OCC)c2)ccc1OC -18.8%, CC(C)NC(=O)C1CCCN(c2ncnc3onc(-c4ccc(F)cc4)c23)C1 (configuration not stated) -12.3%, CCOc1ccccc1NC(=O)CCS(=O)(=O)c1ccc2c(c1)oc(=O)n2C -9.14% [at 11.5 µM, percent change from vehicle, -100% = no light], CCOC(=O)C(C)Sc1nnc2cc(C)c3ccccc3n12 (configuration not stated) -5.71%, COc1ccc2oc(-c3cccc(NC(=O)c4cc([N+](=O)[O-])ccc4N4CCOCC4)c3)nc2c1 -9.41%, COc1cc(C2c3c(-c4c(C)cc(C)cc4O)n[nH]c3C(=O)N2Cc2ccco2)cc(OC)c1OC (configuration not stated) -32.6%, CCCCN(CCCC)CCCNC(=O)c1ccc2nc(N3CCCCC3)sc2c1 9.36%, Cc1ccc(CNC(=O)CCNS(=O)(=O)c2ccc3c(c2)CCCC(=O)N3)cc1 -20.8%, COc1ccc(-c2nnn3c2nc(NCCc2ccc(OC)c(OC)c2)c2ccccc23)cc1 -3.75%, Cc1nn2c(=O)cc(COc3ccc(/C=C(\C#N)C(=O)Nc4ccccc4C)cc3)nc2s1 -20%, COc1ccc2c(c1)c1c(c(=O)n(-c3cc(Cl)ccc3C)c(=O)n1CC(=O)N1CCCC1)n2C -3.96%, COc1ccc(OC)c(Nc2nc3ccccc3nc2-n2nc(C)cc2C)c1 1.56%, CCCCN1C(=O)c2[nH]nc(-c3ccccc3O)c2C1c1ccc(OCc2ccccc2)c(OC)c1 (configuration not stated) -54.6%, Cc1ccccc1NC(=O)c1c(NC(=O)c2ccccc2F)sc2c1CCC(C)C2 (configuration not stated) -5.59%, COc1ccc(Cn2ccc3nc(C)c(C(=O)N4CCN(c5ccc(F)cc5)CC4)cc3c2=O)cc1 -7.68%, Cc1ccc(Sc2c(C)nn(C(C)(C)C)c2OC(=O)CC(C)C)cc1 -2.92%, Cc1c(C(=O)OC2CCC(C)CC2)[nH]c2c1C(=O)CC(c1ccc(F)cc1)C2 (configuration not stated) -26.2%, CC(C)CCNc1nc2c(-c3ccccc3)nnn2c2ccccc12 -6.98%, Cc1ccc(C(=O)CSc2nc3cc(C(=O)NC4CCCC4)ccc3c(=O)n2CC2CCCO2)c(C)c1 (configuration not stated) 1.23%, Oc1ccc(OCc2ccccc2)cc1 1.32%, CCOc1ccc(CNC(=O)c2ccc(CSc3nc4ccncc4n3Cc3ccc(F)cc3)cc2)cc1 -21.4%, COc1cccc(-c2cc(C(=O)Nc3cnn(Cc4ccc(Cl)cc4Cl)c3)no2)c1 -24.4%, O=C(CC1N=C2c3ccccc3N=C(SCc3cccc(F)c3)N2C1=O)NCc1cccs1 (configuration not stated) -9.17%, COc1cccc(NC(=O)c2oc3ccccc3c2NC(=O)c2ccccc2C)c1 -0.554%, COC(=O)c1ccccc1NC(=O)CSc1n[nH]c(CC(C)C)n1 -26.9%, Cc1nn(-c2ccccc2)c2nc(C3CC3)cc(C(=O)Nc3cccc(F)c3)c12 -38.3%, CC(=O)Nc1ccc(S(=O)(=O)NCCc2csc3nc(-c4ccc(Cl)cc4)nn23)cc1 -41.3%, CC(C)(C)OC(=O)N1CCC(c2c(C(=O)N3CCN(c4cccc(Cl)c4)CC3)cnn2-c2cccc(Cl)c2)CC1 -16.1%, CCc1ccc(NC(=O)C2CCCN(S(=O)(=O)c3ccc4[nH]c(=O)ccc4c3)C2)cc1 (configuration not stated) -40.2%, CCOC(=O)C1CCN(C(=O)Cn2nc(C)n3c(cc4c(OC)cccc43)c2=O)CC1 -19.7%, CCC1CN(C(=O)NCc2ccc(F)cc2)c2cc(C)ccc2O1 (configuration not stated) -14.9%, O=C(CSc1ccnc(=O)[nH]1)NCc1ccc(F)cc1 -11.5%, COc1cccc(C(c2sc3nc(-c4ccco4)nn3c2O)N2CCC(C)CC2)c1 (configuration not stated) -3.46%, Cc1cccc2c(=O)cc(CSc3ccccc3NC(=O)c3cccc(Cl)c3)[nH]c12 -17.7%, Cc1ccc2nc(CSc3nnc(NC(=O)C(C)C)s3)cc(=O)n2c1 -3.46%, CCOc1ccc(-c2cc3c(=O)n(Cc4nc(-c5ccc(OCC)c(OC)c5)oc4C)ccn3n2)cc1Cl -15.4%, CCCCn1cc2c(c1-c1ccc(Br)cc1)c(=O)n(C)c(=O)n2C -31.1%, CSc1ccc(C2c3c(-c4ccccc4O)n[nH]c3C(=O)N2Cc2ccncc2)cc1 (configuration not stated) -37%, Cc1cccc(OCC(=O)Nc2c(C(=O)Nc3ccc(F)cc3)oc3ccccc23)c1 15.4%, Cc1cccc(N2C(=O)CSC23C(=O)N(C)c2ccccc23)c1 (configuration not stated) -14.8%, Cc1cccc(C(=O)NCCc2nc3ccccc3n2CCC(C)C)c1 -13.5%, CN[C@@H]1[C@@H](O)[C@@H](O[C@@H]2[C@@H](O)[C@H](O[C@H]3O[C@H](CN)[C@@H](O)[C@H](O)[C@@H]3O)[C@@H](N)C[C@@H]2NC(=O)[C@@H](O)CN)OC[C@]1(C)O -13.1%, O=c1c2sc3ccccc3c2n(Cc2cccc(Cl)c2)c(=O)n1Cc1ccccc1 -27.1%, CCOc1ccc(OCC)c(NC(=O)c2cnn(-c3ccc(F)cc3)c2-n2cccc2)c1 -24.7%, CCc1ccc(-n2nc(C)c3c(C)cc(=O)n(CC(=O)Nc4cc(Cl)ccc4OC)c32)cc1 2.67%, COc1cc(NC(=O)NCCc2c(C)nn(C)c2C)cc(OC)c1OC -9.18%, CCCN1CCN(c2nnc(-n3cccc3C(=O)Nc3ccccc3C(F)(F)F)s2)CC1 -6.54%, Cc1nc2nc(NCc3ccccc3Cl)[nH]n2c(=O)c1Cc1ccccc1 -9.26%, CCOC(=O)c1cnc2c(C)cc(C)cc2c1NCCN1CCOCC1 -3.49%, O=C(Nc1ccccc1OCc1cc(=O)n2ccccc2n1)Nc1ccccc1C(F)(F)F 7.25%, CCCSC1=NC2(CCN(C(=O)NC3CCCCC3)CC2)N=C1c1ccc(C)cc1 -10.6%, Cc1ccc(C)c(OCc2nc3ccccc3n2C)c1 9.89%, Cc1ccccc1NC(=O)CSc1nc2c(oc3ccccc32)c(=O)n1Cc1ccco1 -16.8%, Cc1cccc(N(C)S(=O)(=O)c2nnc(NC(=O)C(C)Oc3ccccc3)s2)c1 (configuration not stated) -41.7%, CN1C(=O)c2ccccc2Sc2ccc(NC(=O)Cc3ccc(Cl)cc3)cc21 -28.4%, COc1ccc(OC)c(CCNC(=O)c2ccc3c(c2)N(Cc2ccccc2)CCS3)c1 -28.9%, COC(=O)c1sccc1S(=O)(=O)N1CCN(c2cccc(C)c2)C(C)C1 (configuration not stated) -28.2%, O=C(NCc1ccccc1)C1CCN(c2ncnc3c2nc2n3CCCCC2)CC1 3.58%, Cc1ccc(CCNC(=O)C2CC(=O)N(CCc3ccc(C)cc3)C2)cc1 (configuration not stated) -15.3%, CCOC(=O)c1cccc(NC(=O)C2COc3ccc(OC)cc3C2)c1 (configuration not stated) -25.2%, N=c1ccn2c(n1)O[C@H]1[C@@H](O)[C@@H](CO)O[C@H]12 -32.3%, CCCCc1ccc(NC(=O)Cn2cnc3c(oc4ccccc43)c2=O)cc1 8.23%
